The campaign covered roughly 1,300 compounds. About 100 (7.7%) were called active. Inconclusive means that the source gave no clear call. Such entries were picked first, then a sample of the others. Calls come from the whole dose curve; as a rule, active = well fitted activation curve with a large enough effect; inconclusive = small, poorly fitted or top-dose-only effect; inactive = no such curve, though single readings can be large or run the other way. Potencies of inconclusive entries are doubtful fits and often do not repeat.
biological target: Luciferin 4-monooxygenase (Photinus pyralis) (UniProt P08659); assay: Firefly luciferase (FLuc-C-HiBiT) SDR gain of signal screen - without ATP; settings: Purified FLuc-C-HiBiT, Nano-Glo HiBiT luminescence, no ATP; series mostly up to 32.7 µM; note: nearly all actives have a fitted effect of over 55% in size
Method in brief: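 Ligand-target engagement detected as increased HiBiT complementation luminescence from 10 nM FLuc-C-HiBiT lacking ATP, after >30 min compound exposure and 5-10 min with Nano-Glo HiBiT reagent at room temperature.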
Potency is the fitted concentration of half-maximal effect; tags give direction and shape of the fitted curve.

Chain of UniProt P08659 (P08659 whole entry, looked up): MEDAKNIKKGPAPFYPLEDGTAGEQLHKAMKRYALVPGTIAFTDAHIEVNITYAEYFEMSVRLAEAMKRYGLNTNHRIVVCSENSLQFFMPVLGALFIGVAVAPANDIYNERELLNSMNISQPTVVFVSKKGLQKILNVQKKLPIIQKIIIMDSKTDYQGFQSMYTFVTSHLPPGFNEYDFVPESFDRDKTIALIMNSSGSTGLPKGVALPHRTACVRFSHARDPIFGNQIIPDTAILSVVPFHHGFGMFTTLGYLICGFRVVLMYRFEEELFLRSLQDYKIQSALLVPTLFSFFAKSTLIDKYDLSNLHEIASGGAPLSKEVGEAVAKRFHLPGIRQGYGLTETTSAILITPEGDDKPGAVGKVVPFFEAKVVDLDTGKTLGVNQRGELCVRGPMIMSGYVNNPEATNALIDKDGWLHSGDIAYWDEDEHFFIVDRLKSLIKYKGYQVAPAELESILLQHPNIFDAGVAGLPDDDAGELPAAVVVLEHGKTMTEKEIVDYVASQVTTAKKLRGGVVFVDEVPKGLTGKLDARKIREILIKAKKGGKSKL

Potency, inconclusive:
CCCn1ncc(-c2nc(-c3ccncc3)no2)c1C 14 µM [activator, partial curve], Cc1oc(C(O)c2ccccc2F)nc1C(=O)Nc1ccc(N2CCOCC2)cc1 (stereo unspecified) 22.7 µM [activator, single point], CC(=O)N1CCc2ccc(C(=O)NC3CCCCCC3)cc21 12.4 µM [activator, partial curve], COc1ccc(NC(=O)N2CCc3c(C(=O)N(C)Cc4ccco4)cccc32)cc1 14 µM [activator, partial curve, poor fit], COc1cccc(Nc2nc(-c3ccccc3)no2)c1 12.4 µM [activator, partial curve, poor fit], COCCN1CCC2(C1)CN(C)c1ccc(C(=O)Nc3ccc(F)cc3)cc12 (stereo unspecified) 3.6 µM [activator, partial curve, poor fit], COc1ccc(NC(=O)c2cc3c(=O)[nH]c(C)cn3n2)cc1OC 15.7 µM [activator, partial curve], C[C@@H]1C(=O)O[C@H]2[C@H]1CC[C@@]1(C)Cc3sc(NCCc4ccccn4)nc3[C@@H](C)[C@H]21 22.7 µM [activator, partial curve, poor fit], Cc1ccc(C2=CC(c3ccccc3F)n3c(nc4ccccc43)N2)cc1C (stereo unspecified) 19.7 µM [activator, partial curve], O=C1CCc2cc(NC(=O)c3n[nH]c4ccccc34)ccc2N1 12.4 µM [activator, partial curve], O=C(Nc1cccc(-c2ccc(N3CCOCC3)nn2)c1)Nc1cccc(C(F)(F)F)c1 15.7 µM [activator, partial curve, poor fit], O=C1c2cnc(-c3cccc(C(F)(F)F)c3)nc2OCCN1CC1CC1 20.2 µM [activator, partial curve, poor fit], Cc1ccccc1-c1noc(-c2ccc(NC(C)c3cnn(C)c3)nc2)n1 (stereo unspecified) 14 µM [activator, partial curve], COc1cccc(-c2noc(Nc3ccc4c(c3)OCCO4)n2)c1 15.7 µM [activator, partial curve], CN(Cc1ccco1)C(=O)c1cccc2c1CCN2C(=O)Nc1ccccc1 14 µM [activator, partial curve, poor fit], CCC(=O)Nc1cnc(-c2ccc(C)cc2)nc1 14 µM [activator, partial curve], CCc1ccc(NC(=O)c2cc3ccccn3n2)cc1 12.4 µM [activator, partial curve], CC1(Cc2ccc3c(c2)OCO3)CCCN(C(=O)c2ccc3ncsc3c2)C1 (stereo unspecified) 12.4 µM [activator, partial curve, poor fit], Clc1cccc(Nc2cc3c(cn2)CN(Cc2cccnc2)CCN3)c1 25.5 µM [activator, partial curve], CCCCCc1nn2cc(-c3ccccc3)nc2s1 3.51 µM [activator, partial curve, poor fit], Fc1ccccc1-c1nc(-c2ccccc2)no1 14 µM [activator, partial curve, poor fit], Cc1c(-c2ccccc2F)[nH]c2ccc(CNC(=O)CC3CCC(=O)N3)cc12 (stereo unspecified) 22.1 µM [activator, partial curve, poor fit], CC(C)(C)CN1CCNc2cc(Nc3ccccc3)ncc2C1 3.6 µM [activator, full curve, poor fit], COc1ccc(-c2cn3nc(SCC(=O)Nc4ccccc4F)ccc3n2)cc1 12.4 µM [activator, partial curve, poor fit], Cn1nc(-c2ccc3c(c2)OCCO3)nc1N1CCCCC1 14 µM [activator, partial curve, poor fit], O=C(Nc1ccccc1)c1nc2c(o1)CCN(Cc1ccc(O)cc1)CC2 25.5 µM [activator, partial curve, poor fit], CCCNC(=O)Cn1c(C)ccc(NC(=O)Nc2ccc(OC)cc2)c1=O 14 µM [activator, partial curve], COc1ccc(NC(=O)Nc2cccc(-c3ccc(N4CCOCC4)nn3)c2)cc1 9.89 µM [activator, partial curve], CC(=O)N1CCNc2cc(Nc3ccc(F)cc3)ncc2C1 18 µM [activator, partial curve, poor fit], COc1ccc(/C=C/c2ccc3c(c2)C(=O)N2CC[C@H](NC(=O)CCC(=O)O)[C@H]2C(=O)N3)cc1 12.4 µM [activator, partial curve], COc1ccc(-c2noc(Nc3ccc4c(c3)OCCO4)n2)cc1 2.21 µM [activator, full curve, poor fit], CC(=O)NC1(C)CN(Cc2ccc(-c3ccc4c(ccn4C)c3)s2)C1 18 µM [activator, partial curve, poor fit], COc1ccc2cc(C3CN(C(=O)CCc4n[nH]c(C)n4)CCO3)ccc2c1 (stereo unspecified) 14 µM [activator, partial curve], Cc1ccc(NC(=O)N2CCC(CCNC(=O)C3CCC3)CC2)cc1F 15.7 µM [activator, partial curve, poor fit], COc1ccc(-c2cc3c(=O)n(CCNC(=O)Cc4cccs4)ccn3n2)cc1 8.81 µM [activator, partial curve, poor fit], CC(C)CCNC(=O)c1ccc2c(c1)nc1n2CCCCC1 14 µM [activator, partial curve, poor fit], COc1cccc(-c2cc3c(=O)n(CCNC(=O)C4CCN(C(C)=O)CC4)ccn3n2)c1 24.8 µM [activator, partial curve, poor fit], Cc1ccc(C2=CC(c3ccccc3C)n3c(nc4ccccc43)N2)cc1 (stereo unspecified) 7 µM [activator, partial curve, poor fit], CCc1cccc(NC(=O)Nc2cccc(-c3ccc(N4CCOCC4)nn3)c2)c1 11.1 µM [activator, partial curve, poor fit]

Potency, active:
O=S(=O)(c1cccc(C(F)(F)F)c1)n1c(/C=C/c2ccccc2)nc2ccccc21 1.57 µM, Cc1ccc(-n2ncc3c(N4CCCCC4)ncnc32)cc1Cl 8.81 µM, CC1CCCN(C(=O)c2cc3ccc4cccnc4c3[nH]2)C1 (stereo unspecified) 3.94 µM, Cc1ccc(CSc2nc3cccnc3n2Cc2ccc(C(=O)NCc3ccco3)cc2)cc1 3.94 µM, CCOc1ccc(NC(=O)Nc2cccc(C(=O)O)c2)cc1 4.42 µM, COc1ccc(NC(=O)Nc2ccc(C)n(CC(=O)O)c2=O)cc1 11.1 µM, CCC(C)NC(=O)Cn1c(C)ccc(NC(=O)Nc2ccc(C)cc2)c1=O (stereo unspecified) 3.13 µM, COc1ccc(-c2nc(-c3cccc(C(=O)O)c3)no2)cc1 1.11 µM, COc1ccc(CNC(=O)Nc2cccc(-c3ccc(N4CCCCC4)nn3)c2)cc1 1.97 µM, O=C(O)c1cccc2c1CCN2C(=O)Nc1ccc(F)cc1 11.1 µM, Cc1ccc(C(=O)Nc2cccc(C(=O)O)c2)cc1 12.4 µM, CCOc1ccc(/C=C/c2nc3ccccc3n2S(=O)(=O)c2cccc(Cl)c2)cc1 3.13 µM

Potency, inactive:
Cc1nn(-c2ccc(C(C)C)cc2)c(C)c1[C@@H]1C=C[C@@H](NC(=O)NC(C)C)C1, Cc1ccc(Cn2cc(-c3ccncc3)cc2C(=O)O)cc1, COc1ccc(C2=NOC3(CCN([S+](=O)([O-])c4cccs4)C3)C2)cc1 (stereo unspecified), COc1ccc(Nc2cc3c(nc2OC)nc(CCc2ccccc2)n3C)cn1, COc1ccc(-c2cc(N3CCCC(NC(=O)c4cccs4)C3)n[nH]2)cc1 (stereo unspecified), Cc1ccc(C2Cn3nnc(C(=O)N4CCC(C(=O)NCCc5ccccc5)CC4)c3CO2)cc1 (stereo unspecified), CCCOC(=O)CSc1ncnc2sc3c(c12)CCC(C)C3 (stereo unspecified), CCOc1ccc(C(=O)Nc2cc(-c3nc4ccccc4s3)ccc2OC)cc1, COc1ccc(-c2nc3ccccc3o2)cc1NC(=O)c1cccnc1, CCOc1ccccc1C(=O)Nc1cccc(-c2nc3ccccc3s2)c1, Cc1cc2nn(-c3ccc(Cl)cc3)nc2cc1NC(=O)C(C)C, CCS(=O)(=O)c1cccc(C(=O)Nc2ccc(-c3nc4ccccc4s3)c(O)c2)c1, OC1(CN2CCCN(c3nc4ccccc4s3)CC2)CNCCOC1 (stereo unspecified), Clc1ccc2c(c1)-n1cc(-c3ccccc3)nc1CO2, CCc1noc(-c2nc(-c3ccccc3C)no2)n1, COc1ccc(C(=O)NCCn2ccn3nc(-c4ccc(C)cc4C)cc3c2=O)c(C)c1, CSCC(=O)Nc1nn(-c2ccc(F)cc2)c2cccc(N3CCOCC3)c12, CCOc1cc2sc(N3CCC(C(=O)Nc4ccc(C(C)C)cc4)CC3)nc2cc1Br, CCN(CC)c1cc(CCC(=O)O)ccn1, COc1ccc(C(=O)Nc2cc(-c3nc4ccccc4s3)ccc2OC)cc1
